Reference: PubChem BioAssay AID686978 (National Center for Advancing Translational Sciences (NCATS), 2013)
About 64,000 (15%) of roughly 420,000 compounds were called active. This list was built around the results that the source calls inconclusive (neither active nor inactive); the mix of calls is not that of the screen. The call rests on the fitted dose curve; in most records, active means well fitted inhibition curve with a large enough effect; inconclusive means small, poorly fitted or top-dose-only effect; inactive means flat fitted curve, though single readings scatter. Potencies of inconclusive entries are left out as doubtful fits.
On the % scale 0 is the no-effect control and ±100 the full control effect; potency means the concentration at half of the fitted maximal effect; tags describe the fitted curve by direction and shape.

Assay: qHTS for Inhibitors of human tyrosyl-DNA phosphodiesterase 1 (TDP1): qHTS in cells in absence of CPT; further: nearly all actives have a fitted effect of over 55% in size
Conditions: DT40 Tdp1-/- hTDP1 cells, no CPT, ATP luminescence, 48 h; activity change, negative = growth inhibition: at 46.2 µM (top of the series) unless noted
Procedure, shortened: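 A cellular qHTS used chicken DT40 cells lacking endogenous Tdp1 but carrying stably transfected human TDP1. Compounds were applied without camptothecin, and cell growth kinetics were judged by ATP-dependent luminescence after ≥48 hr.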
In the case of `COc1ccc(N2C(c3cc(OC)cc(OC)c3)=Cc3ccccc3C2CC(C)=O)cc1` (stereo not drawn), the Potency is reported as active: 16.4 µM. With `FC(F)(F)c1nc(SCc2ccc(Cl)cc2Cl)n[nH]1` the Potency was inconclusive [inhibitor, partial curve, poor fit]. With `O=C(O)c1nc(-c2ccccc2)n(-c2cccc(C(F)(F)F)c2)n1` the Potency was “inactive”. In the case of `CCn1cc(C(=O)O)c(=O)c2cc(F)c(N3CCN(C(=S)Nc4ccc(OC)cc4)CC3)cc21`, the Potency is reported as inconclusive [inhibitor, single point]. In the case of `C/C=C1\NC(=O)[C@H](C)NC(=O)[C@@H](NC(=O)[C@@H](Cc2ccc(O)cc2)NC(=O)[C@@H](NC(=O)/C(C)=C/C)C(C)C)[C@@H](C)OC(=O)[C@H](CCCCc2ccc(O)cc2)NC(=O)[C@@H](CCC(=O)OC)NC1=O`, the Potency is reported as “inactive”. In the case of `COC(=O)[C@@H]1[C@@H]2C[C@H]3c4[nH]c5ccccc5c4CCN3C[C@@H]2CC[C@@H]1O`, the Potency is reported as “inactive”. For `Cc1c(O[C@@H]2O[C@H](CO)[C@@H](O)[C@H](O)[C@H]2O)c(CO)c(O[C@@H]2O[C@H](CO)[C@@H](O)[C@H](O)[C@H]2O)c2c1O[C@@H](c1ccccc1)C[C@@H]2O`, the Potency was “inactive”. In the case of `COc1ccc(-c2c3c(=O)n(C)c(=O)n(C)c3cn2-c2cc(OC)ccc2OC)cc1`, the Potency is reported as active: 23.1 µM. With `S=C1N(c2ccccc2)C(c2ccc(Br)cc2)N2CCCN12` (stereo not drawn) the Potency was inconclusive [inhibitor, single point]. With `Cc1ccnc(Nc2nc(-c3ccc(O)cc3)cs2)c1` the Potency was “inactive”. With `CCCn1c(NC(=O)c2cccc(C)c2C)nc2ccccc21` the Potency was active: 14.6 µM. With `CC1CC(C)(C)NC(=S)N1CCCC(=O)N1CCN(c2ccc(F)cc2)CC1` (stereo not drawn) the Potency was inconclusive [inhibitor, single point]. In the case of `CCOC(=O)c1ccc(NC2SC(=O)N(Cc3cccc(C(=O)O)c3)C2=O)cc1` (stereo not drawn), the Potency is reported as “inactive”. For `CN1C[C@@H]2[C@@H]3C(=O)N(Cc4ccccc4)C(=O)[C@@H]3[C@](Cc3ccccc3)(C1=O)N2C(=O)c1ccccc1`, the Potency was inconclusive [inhibitor, single point]. For `Cc1ccc(-c2noc(CCC(=O)NCCN3CCc4ccccc4C3)n2)cc1`, the Potency was inconclusive [inhibitor, single point]. With `O=c1onc(-c2ccccc2)n1-c1cc(Cl)cc(Cl)c1` the Potency was “inactive”. In the case of `CC(C)(Oc1ccc(Cl)cc1)C(=O)NNC(=O)c1ccc(Br)o1`, the Potency is reported as “inactive”. For `COc1ccccc1C(=O)Nc1cc2cc(Cl)ccc2oc1=O`, the Potency was inconclusive [inhibitor, single point]. In the case of `COc1ccc(-c2ccc(/C=C3\C(=O)N(c4ccccc4)N=C3c3ccccc3)o2)c([N+](=O)[O-])c1`, the Potency is reported as active: 20.6 µM. For `C[C@H](CO)N1C[C@H](C)[C@@H](CN(C)C(=O)CC2CC2)Oc2cc(Br)ccc2S1(=O)=O`, the Potency was active: 20.6 µM. With `CCc1ccc(NC(=O)CSc2nc3c(sc4ccccc43)c(=O)n2CCCOC(C)C)cc1` the Potency was active: 20.6 µM. In the case of `FC(F)Oc1ccc(/C=N/c2c(-c3ccc(OC(F)F)cc3)nc3n2CCS3)cc1`, the Potency is reported as inconclusive [inhibitor, single point]. With `CCCCNC(=S)NNC(=O)CCn1cc(C)cn1` the Potency was “inactive”. With `Cc1ccc(-n2c(SCC3CCCCO3)nnc2-c2ccco2)cc1` (stereo not drawn) the Potency was inconclusive [inhibitor, partial curve]. For `CCOc1ccc(Cn2c(CNS(=O)(=O)c3cccc(Cl)c3)nc3cccnc32)cc1`, the Potency was inconclusive [inhibitor, single point]. With `CCC(C(=O)OCC(=O)NC(=O)NC(C)(C)C)c1ccccc1` (stereo not drawn) the Potency was inconclusive [inhibitor, single point]. For `Fc1ccc(-c2n[nH]c(=S)n2Cc2ccccc2)cc1`, the Potency was “inactive”. In the case of `Cc1onc(-c2ccccc2Cl)c1C(=O)Nc1ccc(Cl)cn1`, the Potency is reported as inconclusive [inhibitor, partial curve, poor fit]. For `CCc1ccc(OCCNC(=O)OCc2ccccc2)cc1`, the Potency was inconclusive [inhibitor, single point]. For `CCOC(=O)c1ccc(S(=O)(=O)N2CCN(CC(O)COc3ccc(C#N)cc3)CC2)cc1` (stereo not drawn), the Potency was active: 18.4 µM. In the case of `O=C(NC(=S)NC1CCCCC1)c1ccccc1`, the Potency is reported as inconclusive [inhibitor, single point]. With `CC1(C)Cc2c(sc3c2c(=N)n(Cc2ccco2)c(=O)n3Cc2ccc(F)cc2)CO1` the Potency was inconclusive [inhibitor, partial curve, poor fit]. In the case of `CCOC(=O)c1cc2sccc2n1Cc1ccc(C#N)cc1`, the Potency is reported as inconclusive [inhibitor, single point]. With `Cc1ccn2c(=O)nc(SCC(=O)NC3CCCC3)nc2c1` the Potency was “inactive”. With `COc1ccc(C2C3=C(CC(C)(C)CC3=O)Nc3c2c(=O)n(C)c(=O)n3C)cc1OC` (stereo not drawn) the Potency was inconclusive [inhibitor, single point]. With `Cc1ccc(CNC(=O)c2ccc(CSCc3ccccc3C)o2)cc1` the Potency was inconclusive [inhibitor, single point]. With `COc1ccc(-c2nc3ccc(NS(=O)(=O)c4ccc(Cl)cc4)cc3o2)cc1` the Potency was inconclusive [inhibitor, single point]. With `Cc1cc(N=Nc2ccc(Cl)cc2)cc(CN2CCOCC2)c1O` the Potency was inconclusive [inhibitor, partial curve]. With `Cc1[nH]c2ccccc2c1/C=N/NC(N)=S` the Potency was “inactive”. With `COc1ccccc1/C=N/Nc1cc(N(C)C)nc(N(C)C)n1` the Potency was inconclusive [inhibitor, single point]. For `COc1ccccc1CCNS(=O)(=O)c1cc2c3c(c1)C(C)C(=O)N3CCC2` (stereo not drawn), the Potency was active: 2.91 µM. For `CCOC(=O)C1(Cc2cccc(OC)c2)CCCN(Cc2c(C)nn(C(C)C)c2C)C1` (stereo not drawn), the Potency was inconclusive [inhibitor, partial curve]. For `COc1ccc([C@H]2[C@H](C(=O)C(C)(C)C)N3N=Cc4ccccc4C3[C@]23N=C(c2ccccc2)OC3=O)cc1OC` (stereo partly drawn), the activity change, negative = growth inhibition was inconclusive: -36.4% [inhibitor]. For `O=C(COc1ccc2ccccc2c1Br)Nc1ccncc1`, the Potency was active: 7.31 µM. With `CC(N)c1csc(NC(=O)c2cc(C(C)(C)C)nn2Cc2ccccc2)n1` (stereo not drawn) the Potency was active: 20.6 µM. With `NS(=O)(=O)c1ccc(NC(=S)NC(=O)c2ccc(-c3ccccc3)cc2)cc1` the Potency was inconclusive [inhibitor, single point]. For `COc1ccccc1C(=O)N1CCN(Cc2cc(=O)oc3cc(C)ccc23)CC1`, the Potency was inconclusive [inhibitor, single point]. With `O=C(Oc1cc(=O)oc2ccccc12)c1ccccc1` the Potency was active: 2.31 µM. For `O=[N+]([O-])c1c(C(Cl)Cl)nn(-c2ccccc2)c1N1CCCC1`, the Potency was inconclusive [inhibitor, partial curve]. For `CSCCC(C(=O)NCc1ccccc1)n1c(-c2ccc3c(c2)CCO3)nc2ccccc21` (stereo not drawn), the Potency was inconclusive [inhibitor, single point]. With `Cc1cccc(NC(=O)CCCc2ccccc2)c1` the activity change, negative = growth inhibition was inconclusive: -30.6% [inhibitor]. In the case of `Cc1ccc(C(=O)Cc2nc3ccccc3[nH]2)cc1`, the Potency is reported as “inactive”. With `CCOC(=O)N1CCN(S(=O)(=O)c2cc(Br)cc3c2N(C(=O)C2CC2)CC3)CC1` the Potency was inconclusive [inhibitor, single point]. For `O=S(=O)(c1ccc(=S)[nH]c1)N1CCCCC1`, the Potency was inconclusive [inhibitor, partial curve]. For `CCCCN(CC)C(=O)Cn1ncc2c3ccccc3n(CCC)c2c1=O`, the Potency was active: 23.1 µM. For `CC(=O)c1c(C)[nH]c(C(=O)OCC(=O)Nc2nnc(-c3ccccc3)o2)c1C`, the Potency was inconclusive [inhibitor, single point]. With `O=C(Nc1ccc(N2CCN(C(=O)c3ccco3)CC2)c(Cl)c1)c1c(F)c(F)c(F)c(F)c1F` the Potency was active: 18.4 µM. With `CCCc1cc(-c2ccc(O)c(OCC)c2)c(C#N)c(N)n1` the Potency was inconclusive [inhibitor, single point]. In the case of `CCCCNC(=O)c1nc(C2CCN(S(=O)(=O)c3ccc(Cl)cc3)CC2)oc1-c1ccccc1`, the Potency is reported as active: 7.31 µM. For `O=C(NCc1ccccc1)C1C(c2ccc3c(c2)OCO3)=Nc2ccccc2N1C(=O)c1cccc2ccccc12` (stereo not drawn), the Potency was inconclusive [inhibitor, single point]. In the case of `CC1(OC(=O)C2CCCC2)C(=O)C=C2C=C(c3ccsc3)N(C3CCCC3)C=C2C1=O` (stereo not drawn), the Potency is reported as inconclusive [inhibitor, single point]. For `COc1ccccc1NC(=O)CSC1=Nc2ccccc2C2=NC(CCC(=O)NCc3cccs3)C(=O)N12` (stereo not drawn), the Potency was inconclusive [inhibitor, single point]. With `CCCNC(=O)Cn1nc(-c2ccc(F)cc2)c2cnc3ccc(F)cc3c21` the Potency was “inactive”. For `CCOc1cccc(C(=O)N(Cc2ccc(CC)cc2)C2CCS(=O)(=O)C2)c1` (stereo not drawn), the Potency was inconclusive [inhibitor, single point]. For `CCC(=O)N1N=C(c2ccc(NS(C)(=O)=O)cc2)CC1c1ccc(N(C)C)cc1` (stereo not drawn), the activity change, negative = growth inhibition was inconclusive: -33.2% [inhibitor]. For `Cc1ccc(NC(=O)c2nc3nccc(C)n3n2)c(C)c1`, the Potency was “inactive”. For `COc1cc(/C=C2\SC(N)=NC2=O)cc(OC)c1`, the Potency was inconclusive [inhibitor, single point]. In the case of `Cc1nn(CC(C)C)c2sc(C(=O)NC3CC(C)(C)NC(C)(C)C3)cc12`, the Potency is reported as inconclusive [inhibitor, single point].
